Test results: patent US20250195614A1 (IMMUNITYBIO, published 2025)

Molecular target: TGF-β1 (UniProt P01137 part only)
Assay: cell-based or functional assay

TGF-β1, sequence (P01137 279-390 limits assumed): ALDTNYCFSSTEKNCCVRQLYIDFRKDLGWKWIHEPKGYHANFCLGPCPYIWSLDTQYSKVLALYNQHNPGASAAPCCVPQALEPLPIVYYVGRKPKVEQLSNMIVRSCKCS

B1: TGFRt15*-TGFRs (soluble TGFR/IL15RαSu-TGFR/TF/IL-15D8N protein complex) (other)
chain 1: IPPHVQKSVNNDMIVTDNNGAVKFPQLCKFCDVRFSTCDNQKSCMSNCSITSICEKPQEVCVAVWRKNDENITLETVCHDPKLPYHDFILEDAASPKCIMKEKKKPGETFFMCSCSSDECNDNIIFSEEYNTSNPDGGGGSGGGGSGGGGSIPPHVQKSVNNDMIVTDNNGAVKFPQLCKFCDVRFSTCDNQKSCMSNCSITSICEKPQEVCVAVWRKNDENITLETVCHDPKLPYHDFILEDAASPKCIMKEKKKPGETFFMCSCSSDECNDNIIFSEEYNTSNPDSGTTNTVAAYNLTWKSTNFKTILEWEPKPVNQVYTVQISTKSGDWKSKCFYTTDTECDLTDEIVKDVKQTYLARVFSYPAGNVESTGSAGEPLYENSPEFTPYLETNLGQPTIQSFEQVGTKVNVTVEDERTLVRRNNTFLSLRDVFGKDLIYTLYYWKSSSSGKKTAKTNTNEFLIDVDKGENYCFSVQAVIPSRTVNRKSTDSPVECMGQEKGEFRE[letters of about 120 residues with changes left out]
chain 2: IPPHVQKSVNNDMIVTDNNGAVKFPQLCKFCDVRFSTCDNQKSCMSNCSITSICEKPQEVCVAVWRKNDENITLETVCHDPKLPYHDFILEDAASPKCIMKEKKKPGETFFMCSCSSDECNDNIIFSEEYNTSNPDGGGGSGGGGSGGGGSIPPHVQKSVNNDMIVTDNNGAVKFPQLCKFCDVRFSTCDNQKSCMSNCSITSICEKPQEVCVAVWRKNDENITLETVCHDPKLPYHDFILEDAASPKCIMKEKKKPGETFFMCSCSSDECNDNIIFSEEYNTSNPDITCPPPMSVEHADIWVKSYSLYSRERYICNSGFKRKAGTSSLTECVLNKATNVAHWTTPSLKCIR
For B1, the “IC50, TGF-β1 blocking activity in HEK-Blue TGF-β cells (OD620)” value was 0.0452 nM.
